The list shows a part of the results.
What was measured:
Assay in all cases: glycan array binding signal (z-score within array); higher = stronger binding
Conditions in all cases: glycan notation: IUPAC condensed, linker removed
[1] = target: Kdn(a2-3)Gal(b1-4)Glc
Procedure, shortened: (§1)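 Glycan array binding is given as a within-array Z-score, which can be read as non-binding when negative. The arrays, 3228 of them, came from the Consortium for Functional Glycomics database and were retained only where the protein sequence was available. Z-scores were averaged across arrays of the same protein sequence at different concentrations or buffers and across linkers.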

[2] = target: Kdn(a2-3)Gal(b1-4)GlcNAc
Procedure, shortened: as §1

[3] = target: Kdn(a2-3)Gal(b1-4)[Fuc(a1-3)]GlcNAc
Procedure, shortened: as §1

[4] = target: Kdn(a2-6)Gal(b1-4)GlcNAc
Procedure, shortened: as §1

[5] = target: Man(a1-2)Man(a1-2)Man(a1-3)Man
Procedure, shortened: as §1

[6] = target: Man(a1-2)Man(a1-2)Man(a1-6)[Man(a1-3)]Man
Procedure, shortened: as §1

[7] = target: Man(a1-2)Man(a1-3)Man
Procedure, shortened: as §1

[8] = target: Man(a1-2)Man(a1-3)[Man(a1-2)Man(a1-6)]Man
Procedure, shortened: as §1

[9] = target: Man(a1-2)Man(a1-3)[Man(a1-2)Man(a1-6)]Man(a1-6)[Man(a1-2)Man(a1-2)Man(a1-3)]Man
Procedure, shortened: as §1

[10] = target: Man(a1-2)Man(a1-3)[Man(a1-2)Man(a1-6)]Man(a1-6)[Man(a1-2)Man(a1-2)Man(a1-3)]Man(b1-4)GlcNAc(b1-4)GlcNAc
Procedure, shortened: as §1

[11] = target: Man(a1-2)Man(a1-3)[Man(a1-6)]Man(a1-6)[Man(a1-2)Man(a1-3)]Man(b1-4)GlcNAc(b1-4)GlcNAc
Procedure, shortened: as §1

[12] = target: Man(a1-2)Man(a1-6)[Man(a1-3)]Man(a1-6)[Man(a1-2)Man(a1-2)Man(a1-3)]Man
Procedure, shortened: as §1

[13] = target: Man(a1-2)Man(a1-6)[Man(a1-3)]Man(a1-6)[Man(a1-2)Man(a1-2)Man(a1-3)]Man(b1-4)GlcNAc(b1-4)GlcNAc
Procedure, shortened: as §1

[14] = target: Man(a1-3)[Man(a1-6)]Man
Procedure, shortened: as §1

[15] = target: Man(a1-3)[Man(a1-6)]Man(a1-6)[Man(a1-2)Man(a1-3)]Man(b1-4)GlcNAc(b1-4)GlcNAc
Procedure, shortened: as §1

[16] = target: Man(a1-3)[Man(a1-6)]Man(a1-6)[Man(a1-3)]Man
Procedure, shortened: as §1

[17] = target: Man(a1-3)[Man(a1-6)]Man(a1-6)[Man(a1-3)]Man(b1-4)GlcNAc(b1-4)GlcNAc
Procedure, shortened: as §1

[18] = target: Man(a1-3)[Man(a1-6)]Man(b1-4)GlcNAc(b1-4)GlcNAc
Procedure, shortened: as §1

[19] = target: Man(a1-3)[Man(a1-6)]Man(b1-4)GlcNAc(b1-4)[Fuc(a1-6)]GlcNAc
Procedure, shortened: as §1

[20] = target: Man(a1-6)Man
Procedure, shortened: as §1

[21] = target: Man(b1-4)GlcNAc
Procedure, shortened: as §1

[22] = target: MurNAc(b1-4)GlcNAc
Procedure, shortened: as §1

[23] = target: Neu5Ac(a2-3)Gal
Procedure, shortened: as §1

[24] = target: Neu5Ac(a2-3)Gal(b1-3)GalNAc
Procedure, shortened: as §1

[25] = target: Neu5Ac(a2-3)Gal(b1-3)GalNAc(b1-3)Gal(a1-4)Gal(b1-4)Glc
Procedure, shortened: as §1

[26] = target: Neu5Ac(a2-3)Gal(b1-3)GalNAc(b1-4)[Neu5Ac(a2-3)]Gal(b1-4)Glc
Procedure, shortened: as §1

[27] = target: Neu5Ac(a2-3)Gal(b1-3)GalNAc(b1-4)[Neu5Ac(a2-8)Neu5Ac(a2-3)]Gal(b1-4)Glc
Procedure, shortened: as §1

[28] = target: Neu5Ac(a2-3)Gal(b1-3)GalNAc6S
Procedure, shortened: as §1

[29] = target: Neu5Ac(a2-3)Gal(b1-3)GlcNAc
Procedure, shortened: as §1

[30] = target: Neu5Ac(a2-3)Gal(b1-3)GlcNAc(b1-2)Man
Procedure, shortened: as §1

[31] = target: Neu5Ac(a2-3)Gal(b1-3)GlcNAc(b1-2)Man(a1-3)[GlcNAc(b1-4)][Neu5Ac(a2-3)Gal(b1-3)GlcNAc(b1-2)Man(a1-6)]Man(b1-4)GlcNAc(b1-4)GlcNAc
Procedure, shortened: as §1

[32] = target: Neu5Ac(a2-3)Gal(b1-3)GlcNAc(b1-2)Man(a1-3)[Neu5Ac(a2-3)Gal(b1-3)GlcNAc(b1-2)Man(a1-6)]Man(b1-4)GlcNAc(b1-4)GlcNAc
Procedure, shortened: as §1

[33] = target: Neu5Ac(a2-3)Gal(b1-3)GlcNAc(b1-3)Gal(b1-3)GlcNAc
Procedure, shortened: as §1

[34] = target: Neu5Ac(a2-3)Gal(b1-3)GlcNAc(b1-3)Gal(b1-4)GlcNAc
Procedure, shortened: as §1

[35] = target: Neu5Ac(a2-3)Gal(b1-3)GlcNAc(b1-3)GalNAc
Procedure, shortened: as §1

[36] = target: Neu5Ac(a2-3)Gal(b1-3)GlcNAc(b1-4)Gal(b1-4)Glc
Procedure, shortened: as §1

[37] = target: Neu5Ac(a2-3)Gal(b1-3)GlcNAc(b1-6)GalNAc
Procedure, shortened: as §1

[38] = target: Neu5Ac(a2-3)Gal(b1-3)GlcNAc6S
Procedure, shortened: as §1

B1: GS13686A-pdi-553-26-553 (Parabacteroides distasonis) (protein)
chain: NENPDKPTDDVNYNMNEPRLASTLRGGLIIEGNVEQRLKPLQIDFYSQMTVDGGGWGTKNYIQDDEWNNLVWEEYLKQIASINIVIRSLTEKDKDAYANTIAFARIWRVYVHTLAADKFGPMPFPAYEIVEANPPYKSLKDIYDEYFRELDAAINGFNDSAQPIFSDAGIDLIYKNDVSKWKRFANSLRLRLAVRLTEVDQEKCIAEANAAISSPAGLISDKADNAYMPPKADGSWGQDYNYTMFQITWSGPICMSKSVEKLVTNIGGVAWPQGVVNQTSGVAVSSVHPEKVDPRAPKIFQPGIENGDWKGLVYGPKAEEANTGIYQSKQCAELGFIIKDGYPYKSRPYDLFLSEEVHFLKAELYARGFIAGDAKSEYEAGVRASFATWGVTSEVDDYLTSTEKNEAGTSARYDDQQGAGNTALEKIITQKYIAGIPDLAQEGWNDKRRLNLPRLDVAVYRDQAVYNNNDKDILKSANFIKRMRYPTKESLINATEYEKGKSMLGGKGDIVSTPLWWDKNSNYCTSSK
[1]
  glycan array binding signal (z-score): -0.134
[2]
  glycan array binding signal (z-score): -0.216
[3]
  glycan array binding signal (z-score): -0.163
[4]
  glycan array binding signal (z-score): -0.123
[5]
  glycan array binding signal (z-score): -0.322
[6]
  glycan array binding signal (z-score): -0.073
[7]
  glycan array binding signal (z-score): -0.226
[8]
  glycan array binding signal (z-score): -0.306
[9]
  glycan array binding signal (z-score): -0.101
[10]
  glycan array binding signal (z-score): -0.198
[11]
  glycan array binding signal (z-score): 0.223
[12]
  glycan array binding signal (z-score): -0.039
[13]
  glycan array binding signal (z-score): -0.244
[14]
  glycan array binding signal (z-score): -0.167
[15]
  glycan array binding signal (z-score): 0.162
[16]
  glycan array binding signal (z-score): -0.193
[17]
  glycan array binding signal (z-score): 0.143
[18]
  glycan array binding signal (z-score): -0.281
[19]
  glycan array binding signal (z-score): 0.037
[20]
  glycan array binding signal (z-score): 0.458
[21]
  glycan array binding signal (z-score): 0.156
[22]
  glycan array binding signal (z-score): -0.226
[23]
  glycan array binding signal (z-score): -0.326
[24]
  glycan array binding signal (z-score): -0.313
[25]
  glycan array binding signal (z-score): 0.055
[26]
  glycan array binding signal (z-score): -0.071
[27]
  glycan array binding signal (z-score): 0.189
[28]
  glycan array binding signal (z-score): -0.086
[29]
  glycan array binding signal (z-score): -0.174
[30]
  glycan array binding signal (z-score): -0.219
[31]
  glycan array binding signal (z-score): -0.226
[32]
  glycan array binding signal (z-score): -0.099
[33]
  glycan array binding signal (z-score): -0.316
[34]
  glycan array binding signal (z-score): -0.307
[35]
  glycan array binding signal (z-score): -0.238
[36]
  glycan array binding signal (z-score): -0.483
[37]
  glycan array binding signal (z-score): 3.88
[38]
  glycan array binding signal (z-score): 0.369

From the supplement of paper PMC8728848
